From PubChem BioAssay (NCI)
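Exposure lasted 48 hours, with cells grown in 96-well plates and compounds tested at five concentrations. GI50 is the concentration that inhibits growth by half. TGI is the concentration that stops growth completely.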 The source made the active and inactive calls.

Key:
Test in all cases: inhibition of tumour cell growth, NCI panel, 48 h
CCRF-CEM leukemia = system: CCRF-CEM leukemia
HOP-92 NSCLC = system: HOP-92 NSCLC
NCI-H226 lung = system: NCI-H226 lung
NCI-H23 lung = system: NCI-H23 lung
UACC-257 melanoma = system: UACC-257 melanoma

CC(C)(C)c1ccc(Oc2nccc(-c3c(-c4ccc(F)cc4)ncn3C3CCNCC3)n2)cc1
GI50 (CCRF-CEM leukemia): inactive
TGI (CCRF-CEM leukemia): 7.04 µM
GI50 (HOP-92 NSCLC): 0.179 µM
TGI (HOP-92 NSCLC): 4.37 µM
GI50 (NCI-H226 lung): inactive
TGI (NCI-H226 lung): 8.23 µM
GI50 (NCI-H23 lung): inactive
TGI (NCI-H23 lung): 7.97 µM
GI50 (UACC-257 melanoma): inactive
TGI (UACC-257 melanoma): 7.67 µM
